Assay results published in article PMC12040169 (PLOS Biology, 2025).
Some of the results follow.

Each compound was assayed on T1, C. trachomatis L2/434/Bu expressing GFP (CTL2-GFP). Details: total inclusion area; 28.5 h, 10 µM; inhibitor.
T1 construct: L2/434/Bu GFP intracellular growth in HeLa cells
Parameters: species or system HeLa; C. trachomatis total inclusion area by high-content imaging, normalised to DMSO
Procedure, shortened: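 Host cell viability was gauged from Hoechst-stained nuclei counts, while chlamydial growth was taken from total inclusion area and inclusion number per well. Cells were fixed and imaged by high-content microscopy once bulk GFP and resorufin fluorescence had been measured.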

| Structure (SMILES) | % of control remaining |
| --- | --- |
| COc1ccnc(N2CCCN(CC(N)=O)CC2)n1 [CBK083992] | 65.897 |
| COc1ccc(Br)cc1S(=O)(=O)Nc1c(C(=O)O)sc2ncccc12 [CBK049978] | 74.1817 |
| COc1ccc(Br)cc1S(=O)(=O)Nc1ccsc1C(=O)Nc1ccc(F)cc1 [CBK004593] | 82.4457 |
| COc1ccccc1C(=O)NCCNC(=O)c1ccccn1 [CBK269174] | 94.4036 |
| CC(C)(C)C1=CC2=NC3(CCC3)C3C[C@@](C)(O)[C@@H](O)[C@@H]3N2O1 (stereo partly drawn) [CBK303263] | 69.4886 |
| O=C(O)CN1C(=O)[C@@H]2Cc3ccccc3CN2C1=O [CBK202728] | 89.5951 |
| CCc1n[nH]c(SCc2ccc(Br)cc2)n1 [CBK265221] | 92.8276 |
| O=C(O)c1cccc(NS(=O)(=O)c2cc3ccccc3o2)c1 [CBK200423] | 97.1742 |
| COc1ccc(-c2nnc(SCC(=O)NN)n2-c2ccccc2)cc1 [CBK263157] | 110.235 |
| O=C(O)CCC(=O)Nc1ccc(NC(=O)C2CCCCC2)c(Cl)c1 [CBK268867] | 123.308 |
| CCC(C)NC(=O)Cn1c(C2CCOCC2)cc2cccnc21 (stereo not drawn) [CBK285390] | 97.8235 |
| Cn1cc(-c2nc(C(=O)NCc3ccnc(N4CCCC4)c3)cs2)cn1 [CBK305666] | 19.1954 |
| Cc1ccc(CSCCNS(=O)(=O)c2ccc3ccccc3c2)cc1 [CBK268048] | 100.464 |
| CCOC(=O)Cc1ccc(Nc2cc(-c3ccc(N(C)C)cc3)ncn2)cc1 [CBK090712] | 3.714 |
| O=C(/C=C(\c1ccccc1)n1cncn1)c1ccc(Cl)cc1 [CBK262089] | 104.732 |
| Nc1nc(OCc2cccs2)cnc1-c1ccsc1 [CBK145161] | 97.9108 |
| Cc1[nH]c2ccc(CNC(=O)NC3CCCc4cn[nH]c43)cc2c1C (stereo not drawn) [CBK305488] | 68.6528 |
| Cc1ccc(SC(C)C(=O)NCCCN2CCOCC2)cc1 (stereo not drawn) [CBK268624] | 86.0635 |
| CCOc1ccc(CNc2ccc(C3c4ccsc4CCN3C(C)=O)cc2)cc1 (stereo not drawn) [CBK286451] | 85.3342 |
| Cc1cc(C)n(C(C)CC(=O)N2CCN(C)CC2c2ccccc2)n1 (stereo not drawn) [CBK282014] | 100.382 |
| COc1ccc(C(=O)N[C@H]2CCN3C(=O)c4ccc(Cl)cc4NC(=O)[C@@H]3C2)cc1 [CBK289564] | 128.355 |

| Structure (SMILES) | % of control remaining |
| --- | --- |
| COc1ccc2c(c1)cc(C(=O)NCCN1CCCCC1CO)n2C (stereo not drawn) [CBK306621] | 74.2568 |
| NC(=O)c1c(NC(=O)c2ccc(S(=O)(=O)N3CCCC3)cc2)sc2c1CCCC2 [CBK262486] | 92.756 |
| CC1=CC2=NC3(CCC3)[C@@H]3C[C@@H](O)[C@@H](O)[C@@H]3N2O1 [CBK303257] | 49.3897 |
| O=C1CC[C@@H](NCc2ccccc2O)[C@H](c2cc(F)cc(F)c2)N1 [CBK283126] | 102.272 |
| CN1CCN(C(=O)c2ccc(Cl)cc2)CC1 [CBK126096] | 125.159 |
| COc1ccccc1-c1nnc(SC)n1-c1ccc(C)cc1 [CBK076670] | 95.053 |
| CN1CCN(c2cc(-c3cccc(CO)c3)nc3ccnn23)CC1 [CBK037099] | 118.634 |
| CSc1c(C#N)c(-c2cc(C(C)(C)C)on2)nn1C [CBK006360] | 103.319 |
| Nc1nc2c(nc(Br)n2[C@H]2C[C@@H](O)[C@@H](CO)O2)c(=O)[nH]1 [CBK201333] | 125.758 |
| c1ccc(CCNc2nccnc2-c2ccoc2)nc1 [CBK036790] | 124.045 |
| Cn1c(SCC(=O)N2CCN(c3ccccc3)CC2)nc2cc(Cl)ccc21 [CBK298295] | 111.634 |
| CC(C)(C)OC(=O)N1CCC[C@H]([C@H](O)c2cccs2)C1 [CBK282301] | 112.025 |
| Cc1cc(Oc2ccccc2)nc(NCc2ccccc2)n1 [CBK003557] | 81.1407 |
| CC1CCCCN1C(=O)Cn1c(C2CCOCC2)cc2cccnc21 (stereo not drawn) [CBK284675] | 94.5895 |
| Cc1cc(C)nc(NC(=N)NCc2ccccc2)n1 [CBK288157] | 70.8493 |
| Cc1nc(S(=O)(=O)CCn2cccn2)n(C2CCCCC2)c1C [CBK305217] | 72.237 |
| Cc1nc2nc(N)nn2c(C)c1CCC(=O)NCc1cccc(Cl)c1 [CBK304993] | 56.084 |
| O=C(NC(NC(=O)c1ccccc1F)c1ccc2c(c1)OCO2)c1ccccc1F [CBK265742] | 88.4984 |
| O=S(=O)(NC1CCCCC1Sc1nnc(Nc2ccccc2)s1)c1ccccc1 (stereo not drawn) [CBK266378] | 120.494 |
| COc1ccccc1N/C(=N\OCc1ccc(Cl)cc1Cl)c1nonc1N [CBK018391] | 66.5422 |
| COc1cc(/C=c2\sc3nc(-c4ccccc4OC(C)=O)nn3c2=O)ccc1OCc1ccccc1 [CBK264575] | 112.479 |

| Structure (SMILES) | % of control remaining |
| --- | --- |
| CCn1c(CN2CCOCC2)nnc1SCC(=O)Nc1cc(Cl)ccc1C [CBK270183] | 96.652 |
| COc1cccc(C2(NC(=O)CCn3nc(C)cc3C)CCCC2)c1 [CBK283749] | 69.3758 |
| COc1cc(-c2cn3ccnc3c(NCC3CC3)n2)ccc1O [CBK037538] | 101.252 |
| O=C1CC(c2ccccc2)CC(=O)N1c1nnn[nH]1 [CBK291154] | 108.802 |
| COc1cccc(/C=C2/NC(=O)N(Cc3ccc(F)cc3)C2=O)c1OCc1cccc(C(=O)O)c1 [CBK265282] | 98.2578 |
| O=C(C1CCCC1)N1CCCCC1c1n[nH]cc1-c1ccncc1 (stereo not drawn) [CBK283427] | 99.3057 |
| N#CC(CC(=O)O)C(Cc1ccccc1)c1ccccc1 (stereo not drawn) [CBK286837] | 106.105 |
| COc1ccc(N2CCN(c3cc(-c4cccc(NC(C)=O)c4)ncn3)CC2)cc1OC [CBK091029] | 106.105 |
| c1cnc(N2CCCC2)c(OC2CCOC2)n1 (stereo not drawn) [CBK115891] | 73.4183 |
| Cc1cc(C(=O)N2C3CCC2CC(O)(c2ccnn2C)C3)sc1C (stereo not drawn) [CBK284518] | 84.8735 |
| Cc1ccc(O)cc1CC[C@@H]1CC(=O)CC2(C)C1CC[C@]2(O)C(=O)COC(=O)CCC(=O)O (stereo partly drawn) [CBK007270] | 79.2966 |
| Nc1ccc2c(c1)/C(=C/c1c[nH]c3ncccc13)C(=O)N2 [CBK010155T] | 99.5164 |
| CCNC(=O)Nc1cc2cccnc2nc1-c1ccc(S(C)(=O)=O)cc1 [CBK070706] | 103.111 |
| CCCN1CCCN(c2ccc(-n3ccc(C)n3)nn2)CC1 [CBK306304] | 62.1925 |
| Cc1cc(N2CCCN(C(=O)CCCOc3ccccc3)CC2)ccn1 [CBK307052] | 103.106 |
| CC1CC(C)CN(C(=O)Cn2c(-c3nonc3N)nc3ccccc32)C1 (stereo not drawn) [CBK264694] | 100.561 |
| CCCC(C(=O)NCCN(C)C1CCCCC1)n1nc(C)cc1C (stereo not drawn) [CBK282039] | 110.884 |
| CCCn1ccc(CNCC(c2ccnn2C)C(C)C)c1 (stereo not drawn) [CBK304861] | 76.8714 |
| O=C(Oc1cccc(/C=N/NC(=O)c2ccccn2)c1)c1cccc(Br)c1 [CBK262115] | 92.9201 |
| NC1CCN(C(=O)Cn2c3ccccc3c(=O)c3ccccc32)C1 (stereo not drawn) [CBK304300C] | 78.6715 |
| Cc1oc(C(C)(C)C)cc1C(=O)NCCNc1c(Cl)cccc1[N+](=O)[O-] [CBK265032] | 114.16 |

| Structure (SMILES) | % of control remaining |
| --- | --- |
| CCCCNC(=S)N1CC[C@@H]2CN(C)C[C@]2(c2ccc(OC)c(OC)c2)C1 [CBK075101T] | 97.2819 |
| c1ccc2c(c1)OCC(COc1nccnc1OC1CCNCC1)O2 (stereo not drawn) [CBK070766T] | 143.852 |
| N#CC1=C(N)n2c(s/c(=C\c3ccc(O)cc3)c2=O)=C(C#N)C1c1ccc(O)cc1 (stereo not drawn) [CBK217780] | 110.513 |
| NC(=O)N/N=C/c1ccncc1 [CBK260922] | 85.0213 |
| CC(=O)N1CCC2(CCCC[C@H]3CN(C(=O)CCC(C)C)CC[C@@H]3NC(=O)CNC2=O)CC1 [CBK292124] | 105.927 |
| Cc1cc(C(C)(C)C)cc(S(=O)(=O)Nc2ccc(O)c(C(=O)O)c2)c1C [CBK266196] | 131.402 |
| COC(=O)c1ccc(Cl)c(NC(=O)CSc2nnc(-c3ccncc3)[nH]2)c1 [CBK268702] | 115.928 |
| CCNc1cc(-c2cncc(OC)c2)ncn1 [CBK090881] | 95.328 |
| CCOC(=O)c1cnc(SCCc2ccccc2)nc1N [CBK085871] | 84.2539 |
| CC(C)C(=O)Nc1cc2ccccc2c(-c2ccc(OCc3ccccc3)c(F)c2)n1 [CBK073783] | 96.0642 |
| Cc1ccc2[nH]c3nc(N/N=C/c4ccc(-c5cccc([N+](=O)[O-])c5)o4)nnc3c2c1 [CBK262365] | 97.6632 |
| CC(C)Oc1ncccc1OCCO [CBK001465] | 55.9539 |
| CCn1cc(S(=O)(=O)NCC2(c3ccccc3)CCCC2)cn1 [CBK282768] | 108.585 |
| O=C(c1c(NS(=O)(=O)c2cccc3cccnc23)sc2c1CCCC2)N1CCOCC1 [CBK028655] | 88.8227 |
| CC(=O)c1cc2c(cc1NC(=O)CSc1nc3ccccc3[nH]1)OCO2 [CBK266110] | 74.2044 |
| COc1ccccc1N1CCN(C(=O)NCCC(C)C)CC1 [CBK155611] | 81.363 |
| Cc1nn(C(C)CC(=O)N2CCCC(CN(C)C)C2)c(C)c1Cl (stereo not drawn) [CBK282137] | 88.13 |
| COc1ccc(/C=N/NS(C)(=O)=O)cc1 [CBK261981] | 92.4494 |
